Source: PMC4336329 (PLoS ONE, 2015)
The whole screen tested about 310,000 compounds, of which about 14,000 (4.5%) showed an effect of 50% or more. The effect is printed as a negative number. The list shows a part of the results.

biological target: human ether-à-go-go-related gene (hERG) potassium channel (human, UniProt Q12809); assay: primary screen, population patch clamp on CHO cells stably expressing hERG
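Also: peak tail current of the secondary pulse compared with the same well before compound.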

Sequence of human ether-à-go-go-related gene (hERG) potassium channel (Q12809 whole entry, looked up): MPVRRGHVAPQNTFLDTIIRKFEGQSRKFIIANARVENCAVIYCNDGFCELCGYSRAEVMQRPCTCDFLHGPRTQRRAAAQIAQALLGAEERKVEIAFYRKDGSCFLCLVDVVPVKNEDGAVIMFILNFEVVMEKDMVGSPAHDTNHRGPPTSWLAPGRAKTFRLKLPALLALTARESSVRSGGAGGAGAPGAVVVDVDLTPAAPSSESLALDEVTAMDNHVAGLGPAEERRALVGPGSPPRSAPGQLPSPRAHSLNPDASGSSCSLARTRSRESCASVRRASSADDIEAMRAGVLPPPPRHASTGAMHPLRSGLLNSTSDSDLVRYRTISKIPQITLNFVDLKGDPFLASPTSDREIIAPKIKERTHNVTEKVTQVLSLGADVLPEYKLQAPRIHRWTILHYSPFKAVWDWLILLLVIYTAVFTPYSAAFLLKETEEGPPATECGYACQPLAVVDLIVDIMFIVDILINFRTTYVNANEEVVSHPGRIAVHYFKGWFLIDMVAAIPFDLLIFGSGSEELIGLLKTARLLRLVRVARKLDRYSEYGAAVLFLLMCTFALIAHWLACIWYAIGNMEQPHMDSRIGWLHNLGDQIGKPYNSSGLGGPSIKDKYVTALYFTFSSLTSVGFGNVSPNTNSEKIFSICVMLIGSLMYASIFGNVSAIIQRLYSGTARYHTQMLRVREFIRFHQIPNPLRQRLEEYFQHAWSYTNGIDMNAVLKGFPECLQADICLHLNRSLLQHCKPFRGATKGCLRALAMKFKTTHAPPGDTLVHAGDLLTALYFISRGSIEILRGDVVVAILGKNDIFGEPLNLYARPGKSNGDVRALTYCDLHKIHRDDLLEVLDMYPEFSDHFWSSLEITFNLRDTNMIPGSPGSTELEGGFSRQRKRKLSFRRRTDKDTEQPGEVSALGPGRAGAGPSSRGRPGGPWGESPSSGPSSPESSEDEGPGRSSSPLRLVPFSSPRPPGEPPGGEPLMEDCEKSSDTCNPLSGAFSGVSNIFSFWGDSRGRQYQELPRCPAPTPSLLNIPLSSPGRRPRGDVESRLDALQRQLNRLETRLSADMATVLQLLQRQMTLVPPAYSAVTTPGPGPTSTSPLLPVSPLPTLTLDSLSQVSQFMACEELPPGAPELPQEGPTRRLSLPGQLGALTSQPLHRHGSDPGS

Row | Compound | hERG current change (%, negative = inhibition) at 10uM [%]
1 | COc1cc(-c2nc3sc(C)c(C)c3c(=O)o2)cc(OC)c1OC | 19
2 | CCCCOc1cc(C(=O)NCCN(CC)CC)c2ccccc2n1 | -65.9
3 | Cc1cc(Cl)ccc1NNC(N)=S | 2.34
4 | Cc1ccc(-n2ncc3c(SCc4ccccn4)ncnc32)c(C)c1 | 14.5
5 | CN1CCN(/N=C/c2ccc(C#N)cc2)CC1.Cl | -34.3
6 | C=CCOc1ccccc1C1NC(=O)NC(C)=C1C(=O)NCc1ccccc1 (stereo not shown) | -5.94
7 | O=[N+]([O-])c1cc2c(cc1/C=N\NS(=O)(=O)c1ccccc1)OCO2 | 10.8
8 | O=c1[nH]c2ccccc2c(O)c1-c1ccccc1 | 6.68
9 | CC12C(=O)N(c3ccc(C(=O)N4CCOCC4)cc3)C(=O)C1C1c3ccccc3C2c2ccccc21 (stereo not shown) | -6.54
10 | CS(=O)(=O)N(CCc1ccccc1)CC(=O)N1CCCC1 | -2.89
11 | C/C(=N\OC(=O)c1ccc(Cl)cc1)c1nccs1 | 12.3
12 | O=C(/C=C/c1ccc(F)cc1)NCC1(c2ccccc2)CCOCC1 | -50.5
13 | CCOCCCNc1nc2c([nH]1)c(=O)n(C)c(=O)n2C | -3.9
14 | CC1=Nc2ccc(C)cc2N(Cc2ccccc2)C(=O)C1 | 9.98
15 | COCC(C)n1c(C)cc(C(=O)CSc2nnc(Nc3ccccc3F)s2)c1C (stereo not shown) | -6.98
16 | O=C(/C=C/NCc1cccnc1)C(F)(F)C(F)(F)F | 11.8
17 | CCOc1ccc(-n2c(C)cc(/C=N/NC(=O)C(N)=O)c2C)cc1 | 12.8
18 | Cc1cc(OCC(=O)NCc2cccnc2)ccc1[N+](=O)[O-] | 4.53
19 | COc1ccc(C(=O)NCCCNC(=O)c2ccc(C)nc2)cc1 | 24
20 | Cc1cccc(C)c1NC(=O)C(=O)c1cn(C)c2ccccc12 | 5.47
21 | O=C(CCNC(=O)c1ccc([N+](=O)[O-])cc1)NCc1ccco1 | -22.3
22 | Cc1ccc(-c2nn(-c3ccccc3)cc2C2CC(c3cccs3)=NN2C(=O)CCC(=O)O)cc1 (stereo not shown) | 14.7

Row | Compound | hERG current change (%, negative = inhibition) at 10uM [%]
23 | COc1ccccc1NC(=O)Nc1cc(NC(=O)Nc2ccccc2OC)c(C)nc1C | 21.7
24 | CC(=O)Nc1ccc(S(=O)(=O)Oc2ccc(N3C(=O)C4CCCCC4C3=O)cc2)cc1 (stereo not shown) | -20.4
25 | CC1CCCC(NC(=O)CNC(=O)c2cccs2)C1C (stereo not shown) | -0.85
26 | C=CCn1c(COc2ccccc2C)nnc1SCC(=O)O | 16.6
27 | Cc1ccc2nc(SCC(=O)N3CCCCCC3)nc(=O)n2c1 | 10.7
28 | CCOC(=O)N1CCN(C(=O)C2CCN(Cc3ccc(OC)cc3OC)CC2)CC1.O=C(O)C(=O)O | -38.5
29 | O=C1Nc2ccc(Cl)cc2C12Nc1ccccc1-c1nnc(SCc3ccccc3F)nc1O2 (stereo not shown) | -1.36
30 | CC(=O)N1c2ccc(S(=O)(=O)NCCC(=O)NCc3ccc(N(C)C)cc3)cc2CC1C (stereo not shown) | 13.8
31 | O=C(COc1nnc2ccccn12)N1CCN(S(=O)(=O)c2ccccc2)CC1 | 18
32 | CCSC(=O)CCCCCCCCCCCO | 11.6
33 | COc1ccc(CCNC(=O)c2cc(C)oc2C)cc1OC | 14.9
34 | CC(=O)O[C@H]1CC[C@@]2(C)C(=CC[C@H]3[C@@H]4CC[C@H](C5(C)OCCO5)[C@@]4(C)CC[C@@H]32)C1 | 13.5
35 | CSCCC(NC(=O)COc1ccccc1)C(=O)N1CCN(c2ccccc2)CC1 (stereo not shown) | -51.9
36 | CCN(CC)S(=O)(=O)c1ccc(NC(=O)c2ccc(N(C)S(C)(=O)=O)cc2)cc1 | 1.68
37 | O=[N+]([O-])c1ccc(S(=O)(=O)N2CCN=C2SCc2ccc(F)cc2)cc1 | 1.43
38 | COc1ccc2[nH]c(C)c(C(=O)CN3CCN(C(=O)c4ccco4)CC3)c2c1 | -23.2
39 | Cc1sc2c(c1C)C(=O)NC(c1ccccc1F)N2 (stereo not shown) | 8.33
40 | CC(=O)N1CCc2cc(S(=O)(=O)N3CCCCCC3)ccc21 | -1.59
41 | COC(=O)c1cc2c(N)c(C(=O)c3ccccc3)sc2nc1C(OC)OC | 0.631
42 | Cc1nc2nc(SCC(=O)c3ccc([N+](=O)[O-])cc3)[nH]c2cc1Br | 8.58
43 | CSC(=NC(C)c1ccccc1)NS(=O)(=O)c1cccs1 (stereo not shown) | 4.76
44 | CCOC(=O)c1cn2nc(-c3ccc(OC)cc3)cc2nc1C1CCN(C(=O)OC(C)(C)C)CC1 | 12.5

Row | Compound | hERG current change (%, negative = inhibition) at 10uM [%]
45 | O=C(Nc1ccc(Cl)cc1)N1CCN(Cc2ccc3c(c2)OCO3)CC1 | -27.6
46 | O=C(NCc1ccc(F)cc1)c1ccc(Br)o1 | -7.47
47 | Cc1ccc(CNC(=O)c2ccc(N3CCC4(CC3)CC(c3ccccc3)=NO4)c(NC(=O)c3cccc(C)c3)c2)cc1 | -6.37
48 | Cc1onc(-c2ccccc2)c1C(=O)N1CCN(S(=O)(=O)c2ccccc2C(F)(F)F)CC1 | 22.6
49 | COc1ccc2cc3c(N)nn(C(=O)c4ccccc4[N+](=O)[O-])c3nc2c1 | -1.76
50 | CC1CCC(NC(=O)COC(=O)C2=NN(c3ccccc3)C(=O)CC2)CC1 (stereo not shown) | 8.43
51 | CS(=O)(=O)c1ccc(-c2cccc(NC(=O)COc3ccccc3)c2)nn1 | -3.45
52 | O=[N+]([O-])c1cccc(C(=S)N2CCN(c3ccccc3)CC2)c1 | -5.65
53 | CC(=O)N1CCN(c2ccc(NC(=O)c3ccc4c(c3)OCCO4)cc2Cl)CC1 | -64.7
54 | CS(=O)(=O)N1CCC(C(=O)Nc2ccc(F)cc2F)CC1 | 10.7
55 | COCCN1CCN(Cc2cn(C)nc2-c2ccc(Oc3ccccc3)cc2)CC1 | -65.2
56 | Cc1ccc(C)c(C(=O)NCCN(C)C)c1 | 5.16
57 | CC(=O)C1=C(O)C(=O)N(CC(=O)O)C1c1ccccc1Cl (stereo not shown) | -5.33
58 | C=CCNC(=O)C12CC3CC(C1)CC(C(=O)NCC=C)(C3)C2 | -7.18
59 | N#CCCN(CC(=O)O)S(=O)(=O)c1ccccc1 | 5.74
60 | C[C@H](CCC(=O)O)[C@H]1CC[C@H]2[C@@H]3[C@H](O)C[C@@H]4C[C@H](O)CC[C@]4(C)[C@H]3C[C@H](O)[C@]12C | 4.48
61 | Fc1ccc(CN2CCCCCCC2)c(F)c1 | 8.29
62 | Cc1ccc(NC(=O)CN2CCCCCC2)cc1Br.Cl | -20.3
63 | CCCn1c(SCC(=O)Nc2cccc(Cl)c2Cl)n[nH]c1=O | 13.5
64 | Cc1nccn1-c1ccc(C(F)(F)F)cc1[N+](=O)[O-] | 11.2
65 | O=C(NCc1cccc(C(F)(F)F)c1)c1ccc[nH]1 | 0.702
66 | CC1CCN(CCCNC(=O)C2CCC(=O)N2C2CCCC2)CC1 (stereo not shown) | -1.42

Row | Compound | hERG current change (%, negative = inhibition) at 10uM [%]
67 | COc1ccc(C(=O)COC(=O)C2CCN(S(=O)(=O)c3cccc4cccnc34)CC2)cc1 | 8.26
68 | Cc1coc(NC(=O)CSc2nc(-c3ccc(Cl)cc3)cc(C(F)(F)F)c2C#N)n1 | 9.8
69 | CCC(C)[C@H](NC(=O)N1CCC(C)CC1)C(=O)OC (stereo partly shown) | 16.7
70 | Cn1c(O)c(/C=C2\N=c3ccccc3=C2CCNC(=S)NC2CC2)c(=O)n(C)c1=O | -44.6
71 | Cc1ccnc(SCc2ccc([N+](=O)[O-])cc2)n1 | -19.1
72 | COc1ccc(NC(=O)CN2C(=O)NC(CC(C)C)C2=O)cc1S(=O)(=O)N1CCOCC1 (stereo not shown) | 11
73 | N#CC1=C(S)N(c2ccccc2)C(c2ccc(-c3cc(Cl)ccc3Cl)o2)NC1=O (stereo not shown) | 6.41
74 | CCOC(=O)Cn1nc(C(F)F)c(Br)c1C | 39.6
75 | Cc1nn(Cc2ccccc2Cl)c2sc(C(=O)NC(C)(C)C)cc12 | 10.7
76 | Cc1c(NC(=O)CCC(=O)N2CCOCC2)c(=O)n(-c2ccccc2)n1C | 1.09
77 | CN(C)S(=O)(=O)c1ccc(C(=O)Oc2ccccc2)cc1 | 7.17
78 | CN(C)C1=NCCN1CCCC1CCCC1 | -51
79 | NC(=O)c1c(NC(=O)c2ccccc2F)sc2c1CCCC2 | 22
80 | N#Cc1cc2c(ccc3ccccc32)oc1=O | 21.7
81 | COc1cccc(Nc2nnc(SCc3cc([N+](=O)[O-])cc4c3OCOC4)s2)c1 | -4.71
82 | C/C(=N/NC(=O)CNC(=O)COc1ccccc1)c1ccc(Cl)cc1 | 13.2
83 | O=C(CN1C(=O)S/C(=C\C=C\c2ccccc2)C1=O)Nc1ccc(O)cc1 | 6.72
84 | CC1CCC(C(C)C)C(OCC(O)CNC(C)C)C1.Cl (stereo not shown) | -3.65
85 | Cc1ccc(CCNC(=O)Cn2ncc3c([nH]c4ccccc43)c2=O)cc1 | 14.8
86 | Cc1c(C#N)c2ccccc2n1CC(=O)NC(C)c1ccccc1 (stereo not shown) | -5.59
87 | Cc1ccc(NC(=O)/C=C\C(=O)O)c([N+](=O)[O-])c1 | 21.4
88 | Cc1ccc(C(=O)Nc2ccc(Cl)cc2C)c(Cl)c1 | 13.2
